Consider 45 compounds from paper PMC4336329 (PLoS ONE, 2015).

Molecules are shown by their SMILES. Hit rate of the full screen: of about 310,000 compounds, about 2,200 (0.71%) showed an effect of 50% or more. Effects have a minus sign here. This is one part of the list.

Chain of human ether-à-go-go-related gene (hERG) potassium channel (Q12809 whole entry, looked up): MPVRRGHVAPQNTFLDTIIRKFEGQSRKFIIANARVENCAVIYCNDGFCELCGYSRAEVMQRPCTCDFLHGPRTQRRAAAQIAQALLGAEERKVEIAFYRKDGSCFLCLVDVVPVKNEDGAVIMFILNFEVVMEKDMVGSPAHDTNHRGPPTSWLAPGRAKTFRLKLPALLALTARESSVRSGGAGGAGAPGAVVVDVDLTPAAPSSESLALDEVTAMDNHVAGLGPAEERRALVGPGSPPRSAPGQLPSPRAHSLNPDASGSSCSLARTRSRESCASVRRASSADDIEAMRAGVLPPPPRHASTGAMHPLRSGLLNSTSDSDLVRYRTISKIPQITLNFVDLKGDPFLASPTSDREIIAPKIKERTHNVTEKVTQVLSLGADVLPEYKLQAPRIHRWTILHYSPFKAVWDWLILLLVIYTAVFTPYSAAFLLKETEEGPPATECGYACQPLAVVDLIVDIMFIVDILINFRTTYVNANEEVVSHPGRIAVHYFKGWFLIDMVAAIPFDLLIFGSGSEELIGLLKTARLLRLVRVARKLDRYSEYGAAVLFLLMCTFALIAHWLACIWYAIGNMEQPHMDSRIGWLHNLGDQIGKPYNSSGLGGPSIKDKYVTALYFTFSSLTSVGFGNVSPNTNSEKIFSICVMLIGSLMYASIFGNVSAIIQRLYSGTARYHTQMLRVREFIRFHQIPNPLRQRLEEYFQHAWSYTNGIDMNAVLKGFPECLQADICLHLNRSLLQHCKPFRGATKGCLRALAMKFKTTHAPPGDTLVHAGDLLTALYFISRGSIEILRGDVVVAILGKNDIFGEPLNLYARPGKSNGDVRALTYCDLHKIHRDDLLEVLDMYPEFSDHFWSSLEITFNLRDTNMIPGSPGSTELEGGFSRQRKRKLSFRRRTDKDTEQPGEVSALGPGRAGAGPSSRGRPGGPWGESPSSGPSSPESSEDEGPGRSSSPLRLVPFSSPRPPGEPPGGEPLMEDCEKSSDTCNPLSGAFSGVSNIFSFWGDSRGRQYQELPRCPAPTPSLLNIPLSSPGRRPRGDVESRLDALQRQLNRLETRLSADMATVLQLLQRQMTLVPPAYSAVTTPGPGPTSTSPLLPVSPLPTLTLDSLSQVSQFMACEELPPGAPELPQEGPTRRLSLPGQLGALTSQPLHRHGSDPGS

The test has as its target human ether-à-go-go-related gene (hERG) potassium channel (human, UniProt Q12809). Description: primary screen, population patch clamp on CHO cells stably expressing hERG.
For `CN(C)CCNC(=O)Nc1ccc(F)cc1F`, the “hERG current change (%, negative = inhibition) at 1uM” value is recorded as 20.7%. In the case of `COC(=O)c1cc(S(=O)(=O)NCc2ccc(F)cc2)cn1C` it was 3.53%. Regarding `CCOC(=O)c1cccc(C(=O)Oc2ccccc2)n1`, the “hERG current change (%, negative = inhibition) at 1uM” value is 15.2%. To `CCCn1c(CNS(=O)(=O)c2ccc(C)cc2)nc2ccccc21` belongs -5.34%; to `CNC(=O)c1nn(-c2ccccc2)ccc1=O`, 1.56%. To `O=C1CCC[C@H]2c3[nH]c4ccccc4c3CCN12` belongs 5.85%; to `COC(=O)c1ccc([C@H]2CC(=O)O2)cc1`, 8.35%. Turning to `COc1ccc(NC(=O)COC(=O)C2CC(=O)N(Cc3ccc(C)cc3)C2)cc1` (stereo not drawn), the “hERG current change (%, negative = inhibition) at 1uM” value came out at 9.44%.

For the compound `CCOC(=O)C1CCN(S(=O)(=O)c2ccc3[nH]c4c(c3c2)CCCC4)CC1`, the “hERG current change (%, negative = inhibition) at 1uM” value was found to be 17.4%. To `CCCOc1ccc(/C(O)=C2/C(=O)C(=O)N(c3cc(C)on3)C2c2ccc(C(=O)OC)cc2)cc1` (stereo not drawn) belongs 9.44%; to `COc1ccc(NC(=O)CCc2nnc3ccc(NCc4ccco4)nn23)cc1OC`, 6.63%.

On to `COc1cc(NS(=O)(=O)c2cn(C)cn2)cc(OC)c1`, for which the “hERG current change (%, negative = inhibition) at 1uM” value stood at 10.5%. To `C/C(=N\NC(=O)c1cc(C(C)(C)C)[nH]n1)C12CC3CC(CC(C3)C1)C2` belongs 9.14%; to `Cc1sc2nc(C)n(/N=C/N(C)C)c(=O)c2c1C`, 13.1%. For `C/C(=N\OCC(=O)Nc1c(C)cc(C)cc1C)c1ccc2c(c1)OCCO2`, the “hERG current change (%, negative = inhibition) at 1uM” value worked out at 16.4%. To `COc1cccc(N2CCN(C(=O)C3CCC(=O)N(C4CCCCCC4)C3)CC2)c1` (stereo not drawn) belongs 3.41%; to `O=C(O)c1ccc(N/N=C/c2ccc(F)c(F)c2)cc1.O=S(=O)(O)O`, 11.8%. To `COC(=O)c1cccc(S(=O)(=O)N2CCN(c3nc4ccccc4s3)CC2)c1` belongs 17.5%; to `S=C(NN=C1C2CC3CC(C2)CC1C3)Nc1ccccc1`, 11.9%; to `CC(C)Cc1nnc(NC(=O)CN2C(=O)NC3(CCCCC3)C2=O)s1`, 4.58%. To `O=C(O)/C=C/C(=O)N1CCN(Cc2ccc3c(c2)OCO3)CC1` belongs 17.7%; to `C=CCNC(=S)/C(=C(\[O-])c1ccc(Cl)cc1)[n+]1ccccc1`, 11.2%. On to `N#Cc1cc2c([nH]c1=S)CCCC2`, for which the “hERG current change (%, negative = inhibition) at 1uM” value is given as 11.1%. In the case of `CSCC[C@H](NC(=O)OC(C)(C)C)C(=O)N/N=C/c1ccc2nccnc2c1` it was 2.34%. Consider `NC(=O)c1ccsc1NC(=O)COC(=O)c1ccc([N+](=O)[O-])o1`, for which the “hERG current change (%, negative = inhibition) at 1uM” value was -4.73%. To `O=C(CCS(=O)(=O)Cc1ccccc1F)NCCc1ccc(Cl)cc1` belongs 5.86%; to `Cc1cccc(N2CCN(C(=S)NCc3ccco3)CC2)c1C`, 11.3%. In the case of `COc1cccc(C(=O)Nc2ccc(C(F)(F)F)n(C)c2=O)c1` it was 3.46%. In the case of `Cl.Oc1cccc(Nc2c3ccccc3nc3ccccc23)c1` it was -1.24%. As to `O=C(Nc1ccc(Br)cc1)c1ccc(N2C(=O)C3CCCCC3C2=O)cc1` (stereo not drawn), the “hERG current change (%, negative = inhibition) at 1uM” value is given as -0.16%. To `CCCCn1nnnc1SCC(=O)Nc1ccc2c(c1)OCCO2` belongs 14.9%; to `O=C1CN(c2ccc(Cl)cc2)C2(CCCCC2)S1`, 16.6%. In the case of `CCN(CC)CCCN(Cc1cc2cc3c(cc2[nH]c1=O)OCO3)C(=S)NC` it was 13.2%; in that of `COc1ccc(NC(=O)c2ccccc2NC(=O)C2CC=CCC2C(=O)O)cc1` (stereo not drawn), 14.8%. Regarding `Cl.O=C(NC1CCN(Cc2ccccc2)CC1)c1ccccc1OCc1ccccc1`, the “hERG current change (%, negative = inhibition) at 1uM” value is on record as -13.2%. In the case of `O=C(NCCOCC(F)(F)C(F)F)c1cc(F)c(F)cc1Cl` it was -19.6%. In the case of `CCc1cccc(NC(=O)CSCc2cc(=O)[nH][nH]2)c1` it was 6.33%. To `O=C(c1ccc2oc(CCCc3ccccc3)nc2c1)N1CCCC1` belongs 13.6%; to `Cc1cc(NC(=O)c2cccc(S(=O)(=O)N3CCCCC3)c2)no1`, 11.5%. For the compound `CC1CCc2sc(C(=O)Nc3nnc(SCc4ccc(F)cc4)s3)cc2C1` (stereo not drawn), the “hERG current change (%, negative = inhibition) at 1uM” value is on record as 12.4%.

Consider `CCC1Oc2ccc(C)cc2N(CC(=O)NCCC2=CCCCC2)C1=O` (stereo not drawn), for which the “hERG current change (%, negative = inhibition) at 1uM” value is on record as -6.85%. To `Cc1cc(N/N=C/c2cccc(Cl)c2)nc(-n2nc(C)cc2C)n1` belongs 13.8%.

As for `Nc1nc2ccc(O)cc2s1`, the “hERG current change (%, negative = inhibition) at 1uM” value stood at 3.51%. Take `Clc1ccc(CSc2nccn2Cc2ccccc2)cc1`: the “hERG current change (%, negative = inhibition) at 1uM” value was determined as 5.8%. To `CC(C)Nc1nc(NC(C)C)nc(OCCOC(=O)Nc2ccccc2)n1` belongs -3.81%.
